Columns and labels:
Experiment in all cases: cell-based or functional assay
[1] = target: T1, human FGFR1c together with human beta-Klotho (KLB) (human, UniProt P11362 22-822; Q86Z14 1-1044)
[2] = target: T1, human FGFR1c together with human …; remark: listed apart in the source
[3] = target: human glucagon-like peptide-1 (GLP-1) receptor (human, UniProt P43220 24-463)
Monkey GLP-1R = Monkey GLP-1R (monkey)
Mouse GLP-1R = target: T2, Mouse GLP-1R (mouse, UniProt O35659 22-463)
T2 sequence (looked up): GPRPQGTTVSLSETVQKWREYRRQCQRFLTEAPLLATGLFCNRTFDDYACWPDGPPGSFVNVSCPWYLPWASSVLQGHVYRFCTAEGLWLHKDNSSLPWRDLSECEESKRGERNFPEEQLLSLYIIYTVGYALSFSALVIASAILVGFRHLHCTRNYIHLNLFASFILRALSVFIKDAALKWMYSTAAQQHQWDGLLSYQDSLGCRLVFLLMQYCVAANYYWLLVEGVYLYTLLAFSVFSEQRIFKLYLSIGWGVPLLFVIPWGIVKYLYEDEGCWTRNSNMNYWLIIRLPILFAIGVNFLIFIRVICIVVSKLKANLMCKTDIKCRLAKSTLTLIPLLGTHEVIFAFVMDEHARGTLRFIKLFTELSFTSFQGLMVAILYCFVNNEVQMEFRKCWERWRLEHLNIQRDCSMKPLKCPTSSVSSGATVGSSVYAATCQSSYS

T1 sequence (P11362 22-822, chain 1 of 2): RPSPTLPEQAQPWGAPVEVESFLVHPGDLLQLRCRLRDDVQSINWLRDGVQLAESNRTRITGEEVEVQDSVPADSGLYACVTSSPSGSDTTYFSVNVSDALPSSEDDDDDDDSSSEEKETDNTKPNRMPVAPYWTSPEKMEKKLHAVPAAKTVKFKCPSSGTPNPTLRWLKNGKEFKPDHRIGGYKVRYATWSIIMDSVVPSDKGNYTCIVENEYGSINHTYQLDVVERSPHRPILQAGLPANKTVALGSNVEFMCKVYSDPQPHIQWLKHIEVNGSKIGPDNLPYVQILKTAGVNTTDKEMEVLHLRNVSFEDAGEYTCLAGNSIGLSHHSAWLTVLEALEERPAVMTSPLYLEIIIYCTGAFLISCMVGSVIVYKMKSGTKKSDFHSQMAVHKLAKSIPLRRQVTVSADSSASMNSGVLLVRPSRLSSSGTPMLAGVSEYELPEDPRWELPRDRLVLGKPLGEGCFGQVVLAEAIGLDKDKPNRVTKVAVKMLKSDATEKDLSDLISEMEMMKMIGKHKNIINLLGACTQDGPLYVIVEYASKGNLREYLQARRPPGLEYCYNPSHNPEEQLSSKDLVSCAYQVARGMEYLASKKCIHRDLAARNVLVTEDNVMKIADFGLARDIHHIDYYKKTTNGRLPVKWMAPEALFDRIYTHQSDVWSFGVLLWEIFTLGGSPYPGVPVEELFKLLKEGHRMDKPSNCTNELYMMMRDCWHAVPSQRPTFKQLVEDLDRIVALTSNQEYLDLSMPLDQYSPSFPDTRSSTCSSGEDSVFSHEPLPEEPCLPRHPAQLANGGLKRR
T1 sequence (Q86Z14 whole entry, chain 2 of 2, further chain): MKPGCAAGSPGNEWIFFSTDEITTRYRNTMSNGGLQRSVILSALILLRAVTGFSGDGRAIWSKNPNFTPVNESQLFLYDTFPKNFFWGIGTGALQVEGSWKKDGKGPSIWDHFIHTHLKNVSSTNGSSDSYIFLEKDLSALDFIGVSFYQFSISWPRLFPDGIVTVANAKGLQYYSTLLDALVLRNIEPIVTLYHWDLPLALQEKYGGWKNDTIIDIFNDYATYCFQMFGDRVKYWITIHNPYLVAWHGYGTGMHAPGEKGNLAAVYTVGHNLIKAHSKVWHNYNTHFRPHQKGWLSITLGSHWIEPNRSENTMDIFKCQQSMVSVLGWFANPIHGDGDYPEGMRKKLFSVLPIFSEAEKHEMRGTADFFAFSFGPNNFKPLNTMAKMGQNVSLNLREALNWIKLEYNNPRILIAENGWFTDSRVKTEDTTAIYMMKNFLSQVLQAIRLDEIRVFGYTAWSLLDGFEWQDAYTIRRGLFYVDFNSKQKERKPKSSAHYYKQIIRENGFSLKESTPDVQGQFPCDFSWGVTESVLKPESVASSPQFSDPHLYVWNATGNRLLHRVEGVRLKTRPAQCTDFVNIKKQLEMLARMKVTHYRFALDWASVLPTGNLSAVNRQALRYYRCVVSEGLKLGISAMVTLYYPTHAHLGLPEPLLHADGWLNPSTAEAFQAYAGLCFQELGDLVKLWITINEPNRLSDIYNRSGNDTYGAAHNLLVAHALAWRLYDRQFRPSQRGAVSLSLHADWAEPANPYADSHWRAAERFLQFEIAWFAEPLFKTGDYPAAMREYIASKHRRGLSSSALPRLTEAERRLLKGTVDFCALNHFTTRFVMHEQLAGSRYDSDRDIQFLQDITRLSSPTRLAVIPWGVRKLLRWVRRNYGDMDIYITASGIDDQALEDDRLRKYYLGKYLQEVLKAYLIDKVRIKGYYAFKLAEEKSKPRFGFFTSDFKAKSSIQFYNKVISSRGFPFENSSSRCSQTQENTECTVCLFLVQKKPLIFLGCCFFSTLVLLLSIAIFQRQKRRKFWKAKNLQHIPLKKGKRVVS

B1: GLP-1RA/FGF21 Fc fusion protein SEQ ID NO: 7 (Fc fusion)
chain: GHGEGTFTSDKSKQLEEEAVRLFIEWLKAGGPKKIRYSGGGGGGGSGGGGSGGGGSA[… human IgG1 Fc with changes …]GGGSGSAHPIPDSSPLLQFGGQVRQRYLYTDDACQTEAHLEIREDGTVGGAADQSPESLLQLKALKPGVIQILGVKTSRFLCQRPDGALYGSLHFDPEACSFRELLLEDGYNVYQSEAHGLPLHLPGCKSPHRDPAPRGPARFLPLPGLPPAPPEPPGILAPQPPDVGSSDPLSMVGSQGRSPSYAS
For B1, the “pERK ICW EC50” value [1] was 5.96 nmol/L, the “pFGFR ICW EC50” value [2] was 27.9 nmol/L and the “HTRF cAMP EC50” value [3] was 0.131 nM. For the same binder, the “HTRF cAMP EC50” value (Monkey GLP-1R) was 0.19 nM and the “HTRF cAMP EC50” value (Mouse GLP-1R) was 0.0681 nM.

B2: GLP-1RA/FGF21 Fc fusion protein SEQ ID NO: 8 (Fc fusion)
chain: GHGEGTFTSDKSKQLEEEAVRLFIEWLKAGGPKKIRYSGGGGGGGSGGGGSGGGGSA[… human IgG1 Fc with changes …]GGGSGSAHPIPDSSPLLQFGGQVRQRYLYTDDACQTEAHLEIREDGTVGGAADQSPESLLQLKALKPGVIQILGVKTSRFLCQRPDGALYGSLHFDPEACSFRELLLEDGYNVYQSEAHGLPLHLPGCKSPHRDPAPRGPARFLPLPGLPPAPPEPPGILAPQPPDVGSSDPLSMVYPSQGRSPSYAS
With B2 the “pERK ICW EC50” value [1] was 6.75 nmol/L, the “pFGFR ICW EC50” value [2] was 25.4 nmol/L and the “HTRF cAMP EC50” value [3] was 0.152 nM. The “HTRF cAMP EC50” value (Monkey GLP-1R) was 0.217 nM and the “HTRF cAMP EC50” value (Mouse GLP-1R) was 0.0771 nM.
